Measured values reported in the BET-seq Pho4 binding data (Le et al. 2018).
The other results are listed elsewhere or left out. Values were computed here from the reads of four pooled replicates and scatter widely.

molecular target: T1, Pho4 (S. cerevisiae) (UniProt P07270); assay: relative binding free energy (BET-seq); higher = weaker binding; conditions: reference: library average
T1 sequence: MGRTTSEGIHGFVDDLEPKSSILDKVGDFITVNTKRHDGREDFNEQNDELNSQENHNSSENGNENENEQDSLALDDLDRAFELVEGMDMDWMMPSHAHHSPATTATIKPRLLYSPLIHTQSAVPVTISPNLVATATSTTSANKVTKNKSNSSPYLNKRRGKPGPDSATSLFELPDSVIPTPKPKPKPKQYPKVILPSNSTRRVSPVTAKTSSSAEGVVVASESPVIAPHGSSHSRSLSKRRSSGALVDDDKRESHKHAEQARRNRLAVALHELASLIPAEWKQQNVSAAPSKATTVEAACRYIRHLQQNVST

Relative binding free energy, -0.27 kcal/mol:
TAAGGCACGTGGCGCG

Relative binding free energy, 0.08 kcal/mol:
TGTCACACGTGTTTTT, GGGGGCACGTGATATC, GGGAACACGTGTGTCT, GTATGCACGTGTTCGT, GTTGTCACGTGTCTGA, GGGTGCACGTGTTATC

Relative binding free energy, 0.11 kcal/mol:
AATCTCACGTGGGGGT, TGATTCACGTGCATGG, GGGGACACGTGTGGAT, GAATACACGTGTGTAT

Relative binding free energy, 0.24 kcal/mol:
TAGCTCACGTGGTAAT, GGTTCCACGTGAGGGC, AGAGTCACGTGTAATG, CGGGTCACGTGATAGG, GTGATCACGTGGACTG

Relative binding free energy, 0.33 kcal/mol:
GGAATCACGTGGAGCG, AGGTTCACGTGTTTTC, AGTTTCACGTGTGTCT, GGTTTCACGTGGCTTC, TTCTTCACGTGTAGGC

Relative binding free energy, 0.35 kcal/mol:
ATTCTCACGTGAGGTA, GGAATCACGTGAAGTG

Relative binding free energy, -0.22 kcal/mol:
TGGGGCACGTGGCCTT, ATTGGCACGTGTTTAG, GGACGCACGTGGGTGT

Relative binding free energy, 0.01 kcal/mol:
TATGTCACGTGTCATT, CTGGACACGTGTGGGT, ACATGCACGTGCAGGG, GCGGGCACGTGTGGGG

Relative binding free energy, 0.29 kcal/mol:
GATTTCACGTGGGACT, GTGCTCACGTGGTTTT, GAGGACACGTGGAATT

Relative binding free energy, -0.09 kcal/mol:
CGTGGCACGTGGATTG, TGTTGCACGTGGTGCG

Relative binding free energy, -0.08 kcal/mol:
AGGATCACGTGGGAGA, TGTGTCACGTGGGCAC, TAGGACACGTGGCGTG

Relative binding free energy, 0.36 kcal/mol:
CGGATCACGTGCGGTC, CTGGTCACGTGTAGAA

Relative binding free energy, 0.23 kcal/mol:
GAGGTCACGTGGAAGT, GTTGTCACGTGGTGGC

Relative binding free energy, 0.12 kcal/mol:
TTAGCCACGTGGTAAA, AAACTCACGTGGGGGG

Relative binding free energy, 0.4 kcal/mol:
CGGTTCACGTGATGGG, TCTTTCACGTGGTAAA, GCCGGCACGTGAATGG, TTGATCACGTGAATGT

Relative binding free energy, 0.34 kcal/mol:
GATTGCACGTGAGGTT, GGCATCACGTGATTGG, TTTTTCACGTGTGGGA

Relative binding free energy, 0.03 kcal/mol:
ATATGCACGTGATGTT, AATGACACGTGTGTTG, ATTTACACGTGTTACG, TAGAACACGTGGTTGC, AGGCTCACGTGGTGAG, TTTTCCACGTGTTGTG

Relative binding free energy, 0.05 kcal/mol:
TGGACCACGTGCAGGG, GTACGCACGTGTTTGC, GATAACACGTGTGGTA, GTGAGCACGTGATGTT

Relative binding free energy, 0.04 kcal/mol:
AGCGGCACGTGAGCGT, AATGGCACGTGTATGC, ATGAGCACGTGCAGTT

Relative binding free energy, 0.47 kcal/mol:
GGGTTCACGTGAGGTA

Relative binding free energy, 0.22 kcal/mol:
TAATTCACGTGGAGGA, GTTAACACGTGTGAGT, GGTTACACGTGCGTTT, GTGTTCACGTGGGGGG

Relative binding free energy, 0.32 kcal/mol:
CTCGTCACGTGAGGTG, TTGATCACGTGAGTCA, GAGATCACGTGTTGAT

Relative binding free energy, 0 kcal/mol:
TTTGACACGTGGTTTC, GGTGGCACGTGCTTGC, TGGTACACGTGGCGTT

Relative binding free energy, 0.06 kcal/mol:
GGTGTCACGTGGTGCG, AGGTACACGTGTCATT, ATTAGCACGTGATAGG, ATTTCCACGTGGCTTT, GGTGCCACGTGAATGG, GGATGCACGTGGTTCG, TGTACCACGTGGGTTA, GAAAGCACGTGTGGCT, TACGGCACGTGAGGCG, CTTAGCACGTGAGTGA, TTTTCCACGTGTGGTC

Relative binding free energy, 0.17 kcal/mol:
GATTACACGTGTTTGG, AATTACACGTGGTCGA, TCGTACACGTGATTTT, TTTTACACGTGACATG

Relative binding free energy, -0.01 kcal/mol:
ATGAACACGTGTATTG, TTCGGCACGTGGCGCT

Relative binding free energy, -0.12 kcal/mol:
ATTAGCACGTGGCGGT, TGTCGCACGTGCGGGT, ATGTGCACGTGCGTGT, TAGTGCACGTGTGTCA

Relative binding free energy, -0.2 kcal/mol:
TGACCCACGTGGGTGG

Relative binding free energy, 0.14 kcal/mol:
TGCTTCACGTGTTCTG, AGAATCACGTGTGTGA, TGTGACACGTGTAGTC, TAGGTCACGTGGTTTT, AAATGCACGTGAGTGG

Relative binding free energy, -0.17 kcal/mol:
GTGGGCACGTGGGCCG, CGTGGCACGTGTGCAG, TCAGGCACGTGGGATG

Relative binding free energy, -0.25 kcal/mol:
CTATGCACGTGGGGTG

Relative binding free energy, 0.16 kcal/mol:
ATTTACACGTGTAAGT, TGGGTCACGTGTGGAC, TAAATCACGTGGTTGT, GAAAGCACGTGTGAAG, TTTTTCACGTGCTATT

Relative binding free energy, 0.21 kcal/mol:
TTAGTCACGTGACAGT, TAGATCACGTGTAGTT, CGTTCCACGTGAGGTG, TGATGCACGTGAGTAT, CTGTCCACGTGTGTGA, TATATCACGTGTAGGT, TAATCCACGTGTGATT, TCAGTCACGTGTTATT

Relative binding free energy, 0.39 kcal/mol:
AAGTTCACGTGATCGG

Relative binding free energy, 0.37 kcal/mol:
TTTACCACGTGAGGTA

Relative binding free energy, 0.26 kcal/mol:
TGGGACACGTGAATTG, TTGTTCACGTGCGATA

Relative binding free energy, -0.19 kcal/mol:
AAAGGCACGTGGTTCG, TGATGCACGTGGGTTA, CATGGCACGTGGCGTA, ATCAGCACGTGGGGGA

Relative binding free energy, -0.02 kcal/mol:
AAGGTCACGTGTAGGA, TATGGCACGTGTCAAG, AGAGGCACGTGGAGGA, AAGGTCACGTGGATGA, GATAGCACGTGTGGCG, TCAACCACGTGGGGGG, TGGTACACGTGCTCGG, GGAGGCACGTGGTAGA

Relative binding free energy, 0.1 kcal/mol:
CTGTACACGTGCGGTG, AAAGGCACGTGTTAAT, GATGGCACGTGACTGG, ATAGTCACGTGTGTAA, GAAATCACGTGTAGGG, GGATACACGTGGGAGA, GTAACCACGTGTGGTG, TCTTTCACGTGGTTAT

Relative binding free energy, -0.03 kcal/mol:
GTGCGCACGTGTGGGC, TCCGTCACGTGGGTGG

Relative binding free energy, -0.42 kcal/mol:
AGGCGCACGTGGTAGT

Relative binding free energy, 0.09 kcal/mol:
AGAATCACGTGTATGT, AGTATCACGTGGATAG, ATGATCACGTGGCTGG, GTCAACACGTGGTTAG

Relative binding free energy, 0.3 kcal/mol:
GAGTTCACGTGCGTGT, TGTATCACGTGAGTTT

Relative binding free energy, -0.1 kcal/mol:
TGTTCCACGTGGGGTC

Relative binding free energy, 0.02 kcal/mol:
ATCGGCACGTGTTGGC, TAACGCACGTGGATTG, TGGTCCACGTGTGTGG, AGGGCCACGTGTAGCG, AGGTGCACGTGGTTCA, GGTATCACGTGGGTAA, TGGATCACGTGGGATA

Relative binding free energy, 0.15 kcal/mol:
AAGGACACGTGGCTGG, GTTGGCACGTGAACGG, AGGTTCACGTGCTGTG, AATTTCACGTGGGAGG, ATTATCACGTGGAGAG, GTGTGCACGTGAGTGC, CTGTTCACGTGGCGGG, TCCGGCACGTGAGGGT

Relative binding free energy, 0.18 kcal/mol:
GTATACACGTGATGTA, GTTCTCACGTGGTGTA, TTAATCACGTGGCGCG, GGCTGCACGTGTGTAT, TGTGTCACGTGTTTTC

Relative binding free energy, 0.2 kcal/mol:
TTTCTCACGTGTACGG, CGTCACACGTGAGGGT, TATAGCACGTGAAGTG, TTAAGCACGTGAGTGC

Relative binding free energy, -0.23 kcal/mol:
AATGGCACGTGCCTGG, ATGCGCACGTGGGGAG, GGAAGCACGTGTGTTA

Relative binding free energy, 0.27 kcal/mol:
GGAGCCACGTGAGTTT

Relative binding free energy, 0.19 kcal/mol:
GGGCACACGTGGATTT, TTGGACACGTGTCTAT, GGTATCACGTGCGGTC, GAGATCACGTGTTCGG, TTTGGCACGTGAACGG

Relative binding free energy, -0.21 kcal/mol:
CGATGCACGTGGGGGA

Relative binding free energy, -0.04 kcal/mol:
TGCAGCACGTGGTGAG, TGTTGCACGTGCTGAG, GTATGCACGTGGGACG

Relative binding free energy, 0.38 kcal/mol:
AAGTTCACGTGTCAGG, GTATTCACGTGTGGAC, AAGTACACGTGAAGGT, AACTTCACGTGTAATT

Relative binding free energy, -0.16 kcal/mol:
TAGGCCACGTGTGGTG, TGAAGCACGTGGTGTT

Relative binding free energy, 0.31 kcal/mol:
ATTCTCACGTGTGTAA, CTATACACGTGAAGGG, TATTTCACGTGACGTT, TTTGACACGTGAAATT

Relative binding free energy, -0.07 kcal/mol:
TTCTGCACGTGGGGAA

Relative binding free energy, -0.14 kcal/mol:
TGCCGCACGTGGCGGG

Relative binding free energy, -0.11 kcal/mol:
TGTCGCACGTGGGCGA, CTCGTCACGTGGGTAG

Relative binding free energy, -0.3 kcal/mol:
TAGAGCACGTGGGCTT

Relative binding free energy, -0.06 kcal/mol:
TTTGGCACGTGGACGG, CCGGGCACGTGTGATG, GCGGCCACGTGTAGGG

Relative binding free energy, 0.13 kcal/mol:
GTGCACACGTGTAGGA, GGTGGCACGTGAGCTT, AAGGACACGTGTTGAA, CTTTTCACGTGCGTGT

Relative binding free energy, 0.25 kcal/mol:
GAAGACACGTGATGGG, ATGGACACGTGATGAA, TGGTTCACGTGTCACG, GTGCTCACGTGTTTAT, ACGGTCACGTGTTCTG, TAATTCACGTGTGGTA

Relative binding free energy, -0.15 kcal/mol:
TGTAACACGTGGGCTG, AGAGGCACGTGTTGTA

Relative binding free energy, 0.07 kcal/mol:
GCGTGCACGTGTCGTT, TGAGACACGTGTCATT, GTTAGCACGTGTAGTA, GGTTGCACGTGCCTTT, CTGGACACGTGTTTAT, GATATCACGTGGTGTG

Relative binding free energy, 0.28 kcal/mol:
ATTTACACGTGATGGT, GGATGCACGTGAGGGT, CGTTTCACGTGTGTAG, ATGTGCACGTGAAGAT
